Among the data in paper PMC8161014 are binding values, retold here.

By UniProt entry, the sequences of proteins in these tests, tags left out. Where a name states a change or a piece, a line headed by the entry shows the natural chain unless it says otherwise. Chains listed by the source or under a name are the forms on record and can include a tag or linker. Residues count along the entry.
StrepII-FLAG-tagged DCAF12 (∆1–38) (Q5T6F0, residues 39-453): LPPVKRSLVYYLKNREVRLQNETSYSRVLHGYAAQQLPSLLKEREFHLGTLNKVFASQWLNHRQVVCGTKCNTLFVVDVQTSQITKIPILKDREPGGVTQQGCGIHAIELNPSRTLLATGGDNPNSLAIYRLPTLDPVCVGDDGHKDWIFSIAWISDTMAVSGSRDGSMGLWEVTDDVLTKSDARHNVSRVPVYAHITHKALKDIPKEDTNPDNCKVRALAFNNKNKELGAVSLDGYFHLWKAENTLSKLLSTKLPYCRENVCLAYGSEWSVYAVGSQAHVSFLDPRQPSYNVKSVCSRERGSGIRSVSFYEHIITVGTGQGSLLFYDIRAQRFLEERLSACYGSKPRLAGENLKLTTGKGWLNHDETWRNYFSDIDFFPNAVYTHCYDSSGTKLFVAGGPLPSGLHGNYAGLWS
UniProt Q16531: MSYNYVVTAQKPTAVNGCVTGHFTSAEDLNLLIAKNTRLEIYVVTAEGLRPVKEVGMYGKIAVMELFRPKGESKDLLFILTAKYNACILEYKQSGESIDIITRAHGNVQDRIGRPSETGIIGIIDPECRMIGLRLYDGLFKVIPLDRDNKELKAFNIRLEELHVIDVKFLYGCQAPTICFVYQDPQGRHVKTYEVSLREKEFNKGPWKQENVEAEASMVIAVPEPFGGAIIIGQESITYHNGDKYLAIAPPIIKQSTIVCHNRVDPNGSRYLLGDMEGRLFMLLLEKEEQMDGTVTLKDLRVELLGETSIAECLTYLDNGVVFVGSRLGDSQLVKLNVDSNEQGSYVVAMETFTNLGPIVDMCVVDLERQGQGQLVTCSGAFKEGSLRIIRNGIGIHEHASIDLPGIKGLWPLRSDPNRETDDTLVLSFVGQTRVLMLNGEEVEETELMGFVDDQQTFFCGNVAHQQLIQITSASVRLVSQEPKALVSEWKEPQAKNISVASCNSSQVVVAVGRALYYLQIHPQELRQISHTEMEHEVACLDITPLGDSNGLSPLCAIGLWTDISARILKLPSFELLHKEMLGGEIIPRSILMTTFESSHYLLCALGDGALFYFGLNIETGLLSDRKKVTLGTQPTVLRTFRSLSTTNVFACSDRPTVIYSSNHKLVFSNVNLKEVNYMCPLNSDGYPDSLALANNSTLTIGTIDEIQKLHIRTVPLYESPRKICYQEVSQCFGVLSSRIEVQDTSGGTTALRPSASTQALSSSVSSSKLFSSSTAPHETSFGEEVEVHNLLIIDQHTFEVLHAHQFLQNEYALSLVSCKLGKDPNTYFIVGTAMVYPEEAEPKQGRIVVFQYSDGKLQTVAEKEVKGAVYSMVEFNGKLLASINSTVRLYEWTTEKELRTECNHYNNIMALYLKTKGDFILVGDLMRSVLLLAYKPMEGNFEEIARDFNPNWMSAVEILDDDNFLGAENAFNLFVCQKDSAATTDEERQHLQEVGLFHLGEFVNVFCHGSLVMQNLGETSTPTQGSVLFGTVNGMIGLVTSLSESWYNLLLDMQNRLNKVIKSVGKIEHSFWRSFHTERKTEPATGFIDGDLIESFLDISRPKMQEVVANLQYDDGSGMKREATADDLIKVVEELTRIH
UniProt Q13619: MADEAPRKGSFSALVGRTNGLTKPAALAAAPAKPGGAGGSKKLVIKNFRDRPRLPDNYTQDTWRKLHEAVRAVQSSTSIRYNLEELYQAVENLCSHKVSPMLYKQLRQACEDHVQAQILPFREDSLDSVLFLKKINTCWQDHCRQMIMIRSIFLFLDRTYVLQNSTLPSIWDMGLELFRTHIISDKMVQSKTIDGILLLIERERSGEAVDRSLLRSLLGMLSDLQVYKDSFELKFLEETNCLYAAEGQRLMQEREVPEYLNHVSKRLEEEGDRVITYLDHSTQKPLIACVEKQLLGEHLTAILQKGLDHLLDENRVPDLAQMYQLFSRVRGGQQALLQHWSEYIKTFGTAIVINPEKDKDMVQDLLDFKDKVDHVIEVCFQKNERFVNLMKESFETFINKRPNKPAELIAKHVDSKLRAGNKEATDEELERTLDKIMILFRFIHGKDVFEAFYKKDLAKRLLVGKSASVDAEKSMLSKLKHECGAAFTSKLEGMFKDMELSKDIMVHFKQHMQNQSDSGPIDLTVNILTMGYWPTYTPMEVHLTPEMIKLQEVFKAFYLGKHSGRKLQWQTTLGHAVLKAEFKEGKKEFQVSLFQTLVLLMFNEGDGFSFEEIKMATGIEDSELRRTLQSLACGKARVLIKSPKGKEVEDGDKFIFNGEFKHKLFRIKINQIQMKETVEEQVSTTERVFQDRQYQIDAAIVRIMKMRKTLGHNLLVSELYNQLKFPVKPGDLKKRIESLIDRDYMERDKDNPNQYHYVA

Results are given in words; binding and its absence hold for the method and conditions named. Binding seen in cells or lysates may run through a third protein. Some binding calls cover weakened binding; strength is not graded here. For some of these results: Tags and fused reporters may be left off the sequences shown.

Experiment [1] has as its target T1, HA-tagged MOV10 (E1002X) (human) (UniProt Q9HCE1).
T1 sequence: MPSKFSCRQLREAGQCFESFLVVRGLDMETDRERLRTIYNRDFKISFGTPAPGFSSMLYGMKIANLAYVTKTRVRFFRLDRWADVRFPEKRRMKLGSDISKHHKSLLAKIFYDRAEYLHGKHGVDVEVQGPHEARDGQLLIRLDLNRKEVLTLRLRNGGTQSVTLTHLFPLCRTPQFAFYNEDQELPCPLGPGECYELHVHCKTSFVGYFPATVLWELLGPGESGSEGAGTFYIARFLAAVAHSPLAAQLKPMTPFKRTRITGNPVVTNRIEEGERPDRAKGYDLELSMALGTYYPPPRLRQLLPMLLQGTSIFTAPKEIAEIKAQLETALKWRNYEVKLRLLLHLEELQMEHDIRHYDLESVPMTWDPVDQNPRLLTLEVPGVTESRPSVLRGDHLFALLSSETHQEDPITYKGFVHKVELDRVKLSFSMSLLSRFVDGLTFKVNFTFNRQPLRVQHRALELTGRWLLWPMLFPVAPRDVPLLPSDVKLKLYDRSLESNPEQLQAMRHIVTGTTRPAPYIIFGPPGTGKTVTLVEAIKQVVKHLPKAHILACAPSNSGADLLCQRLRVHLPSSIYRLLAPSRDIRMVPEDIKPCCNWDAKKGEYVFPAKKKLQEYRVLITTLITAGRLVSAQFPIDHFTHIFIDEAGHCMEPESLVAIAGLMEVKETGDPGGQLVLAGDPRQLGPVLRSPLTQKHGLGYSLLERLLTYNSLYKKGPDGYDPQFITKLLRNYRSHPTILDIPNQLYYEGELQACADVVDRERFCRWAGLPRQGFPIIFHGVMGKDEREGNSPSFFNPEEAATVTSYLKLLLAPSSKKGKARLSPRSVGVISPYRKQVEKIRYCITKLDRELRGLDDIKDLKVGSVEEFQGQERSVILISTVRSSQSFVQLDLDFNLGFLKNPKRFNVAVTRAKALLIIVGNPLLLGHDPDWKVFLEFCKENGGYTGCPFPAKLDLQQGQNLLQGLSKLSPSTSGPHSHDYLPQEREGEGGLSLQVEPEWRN
The experiment is described as follows: co-IP; HEK293T co-transfected with StrepII-FLAG-tagged DCAF12 and HA-tagged MOV10 (WT) or (E1002X); MLN4924 for the last 6 h; anti-HA IP of whole-cell lysates, immunoblot.

Experiment [2] deals with T2, HA-tagged MOV10 (WT) (human) (UniProt Q9HCE1).
T2 sequence: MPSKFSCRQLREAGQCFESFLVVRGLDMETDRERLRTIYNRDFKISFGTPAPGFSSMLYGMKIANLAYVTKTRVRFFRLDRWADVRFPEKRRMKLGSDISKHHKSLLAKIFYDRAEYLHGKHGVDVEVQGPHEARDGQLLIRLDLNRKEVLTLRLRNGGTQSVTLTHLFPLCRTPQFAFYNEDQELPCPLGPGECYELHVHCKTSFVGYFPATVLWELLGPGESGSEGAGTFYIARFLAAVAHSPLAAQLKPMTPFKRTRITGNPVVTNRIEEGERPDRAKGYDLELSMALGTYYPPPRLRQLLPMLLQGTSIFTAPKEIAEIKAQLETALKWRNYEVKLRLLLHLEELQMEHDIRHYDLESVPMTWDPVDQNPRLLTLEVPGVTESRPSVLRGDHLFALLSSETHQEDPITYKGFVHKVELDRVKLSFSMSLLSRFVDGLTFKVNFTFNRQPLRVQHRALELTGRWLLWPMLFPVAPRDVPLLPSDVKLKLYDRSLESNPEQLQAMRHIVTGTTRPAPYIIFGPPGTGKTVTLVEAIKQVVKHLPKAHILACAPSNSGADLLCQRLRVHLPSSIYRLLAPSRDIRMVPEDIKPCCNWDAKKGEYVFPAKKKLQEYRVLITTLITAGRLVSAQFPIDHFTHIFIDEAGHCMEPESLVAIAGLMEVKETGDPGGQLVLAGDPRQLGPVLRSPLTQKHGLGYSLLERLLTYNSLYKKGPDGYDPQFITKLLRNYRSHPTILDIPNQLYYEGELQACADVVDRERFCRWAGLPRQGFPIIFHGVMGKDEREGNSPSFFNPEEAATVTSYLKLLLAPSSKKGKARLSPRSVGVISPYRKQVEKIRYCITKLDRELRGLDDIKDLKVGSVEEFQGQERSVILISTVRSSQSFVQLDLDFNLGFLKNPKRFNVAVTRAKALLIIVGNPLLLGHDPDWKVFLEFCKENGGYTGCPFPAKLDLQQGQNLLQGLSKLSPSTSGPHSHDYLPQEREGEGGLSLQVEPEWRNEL
The description is as above.

The target in experiment [3] is StrepII-FLAG-tagged DCAF12 (WT) (human) (UniProt Q5T6F0). The experiment is described as follows: pull-down; HEK293 cells with doxycycline-inducible HA-tagged MOV10 (WT) or (E1002X) transfected with StrepII-FLAG-tagged DCAF12 (WT) or (∆1–38); DOX 100 ng/mL 24 h, MLN4924 for the last 6 h; affinity purification of whole-cell lysates, immunoblot. (Immunoblotting shows a protein as a band on a membrane.)

Experiment [4] has as its target StrepII-FLAG-tagged DCAF12 (∆1–38) (human) (UniProt Q5T6F0). Described as above.
The target in experiment [5] is StrepII-FLAG-tagged DCAF12 (WT) (human) (UniProt Q5T6F0). In words: pull-down; StrepII-FLAG-tagged substrate receptors transfected into HEK293T, MLN4924 for 6 h before harvesting; whole-cell lysates subjected to affinity purification with Strep-TactinXT resin; eluates immunoblotted for endogenous proteins.

Consider “endogenous DDB1 (DNA damage-binding protein 1) (from UniProt Q16531 1-1140)”, for which the figures for the binding entry in experiment [1] and in experiment [2] were “no binding” and “binds”, respectively.

With “endogenous CUL4A (from UniProt Q13619 1-759)”, the binding entry in experiment [1] was “no binding”; in experiment [2] it was “binds”.

Regarding “StrepII-FLAG-tagged DCAF12 (WT) (from UniProt Q5T6F0 1-453)”, the binding result in experiment [1] is on record as “no binding”; in experiment [2], “binds”.

B1: HA-tagged MOV10 (WT) (protein, UniProt Q9HCE1 1-1003)
chain: T2 sequence
With B1, the binding result in experiment [3] and in experiment [4] was “binds” each time.

B2: endogenous ADAR (adenosine deaminase acting on RNA) (protein, UniProt P55265 1-1226)
chain: MNPRQGYSLSGYYTHPFQGYEHRQLRYQQPGPGSSPSSFLLKQIEFLKGQLPEAPVIGKQTPSLPPSLPGLRPRFPVLLASSTRGRQVDIRGVPRGVHLRSQGLQRGFQHPSPRGRSLPQRGVDCLSSHFQELSIYQDQEQRILKFLEELGEGKATTAHDLSGKLGTPKKEINRVLYSLAKKGKLQKEAGTPPLWKIAVSTQAWNQHSGVVRPDGHSQGAPNSDPSLEPEDRNSTSVSEDLLEPFIAVSAQAWNQHSGVVRPDSHSQGSPNSDPGLEPEDSNSTSALEDPLEFLDMAEIKEKICDYLFNVSDSSALNLAKNIGLTKARDINAVLIDMERQGDVYRQGTTPPIWHLTDKKRERMQIKRNTNSVPETAPAAIPETKRNAEFLTCNIPTSNASNNMVTTEKVENGQEPVIKLENRQEARPEPARLKPPVHYNGPSKAGYVDFENGQWATDDIPDDLNSIRAAPGEFRAIMEMPSFYSHGLPRCSPYKKLTECQLKNPISGLLEYAQFASQTCEFNMIEQSGPPHEPRFKFQVVINGREFPPAEAGSKKVAKQDAAMKAMTILLEEAKAKDSGKSEESSHYSTEKESEKTAESQTPTPSATSFFSGKSPVTTLLECMHKLGNSCEFRLLSKEGPAHEPKFQYCVAVGAQTFPSVSAPSKKVAKQMAAEEAMKALHGEATNSMASDNQPEGMISESLDNLESMMPNKVRKIGELVRYLNTNPVGGLLEYARSHGFAAEFKLVDQSGPPHEPKFVYQAKVGGRWFPAVCAHSKKQGKQEAADAALRVLIGENEKAERMGFTEVTPVTGASLRRTMLLLSRSPEAQPKTLPLTGSTFHDQIAMLSHRCFNTLTNSFQPSLLGRKILAAIIMKKDSEDMGVVVSLGTGNRCVKGDSLSLKGETVNDCHAEIISRRGFIRFLYSELMKYNSQTAKDSIFEPAKGGEKLQIKKTVSFHLYISTAPCGDGALFDKSCSDRAMESTESRHYPVFENPKQGKLRTKVENGEGTIPVESSDIVPTWDGIRLGERLRTMSCSDKILRWNVLGLQGALLTHFLQPIYLKSVTLGYLFSQGHLTRAICCRVTRDGSAFEDGLRHPFIVNHPKVGRVSIYDSKRQSGKTKETSVNWCLADGYDLEILDGTRGTVDGPRNELSRVSKKNIFLLFKKLCSFRYRRDLLRLSYGEAKKAARDYETAKNYFKKGLKDMGYGNWISKPQEEKNFYLCPV
For B2, in experiment [5], the binding result is given as “binds”.

B3: endogenous GART (glycinamide ribonucleotide transformylase) (protein, UniProt P22102 1-1010)
chain: MAARVLIIGSGGREHTLAWKLAQSHHVKQVLVAPGNAGTACSEKISNTAISISDHTALAQFCKEKKIEFVVVGPEAPLAAGIVGNLRSAGVQCFGPTAEAAQLESSKRFAKEFMDRHGIPTAQWKAFTKPEEACSFILSADFPALVVKASGLAAGKGVIVAKSKEEACKAVQEIMQEKAFGAAGETIVIEELLDGEEVSCLCFTDGKTVAPMPPAQDHKRLLEGDGGPNTGGMGAYCPAPQVSNDLLLKIKDTVLQRTVDGMQQEGTPYTGILYAGIMLTKNGPKVLEFNCRFGDPECQVILPLLKSDLYEVIQSTLDGLLCTSLPVWLENHTALTVVMASKGYPGDYTKGVEITGFPEAQALGLEVFHAGTALKNGKVVTHGGRVLAVTAIRENLISALEEAKKGLAAIKFEGAIYRKDVGFRAIAFLQQPRSLTYKESGVDIAAGNMLVKKIQPLAKATSRSGCKVDLGGFAGLFDLKAAGFKDPLLASGTDGVGTKLKIAQLCNKHDTIGQDLVAMCVNDILAQGAEPLFFLDYFSCGKLDLSVTEAVVAGIAKACGKAGCALLGGETAEMPDMYPPGEYDLAGFAVGAMERDQKLPHLERITEGDVVVGIASSGLHSNGFSLVRKIVAKSSLQYSSPAPDGCGDQTLGDLLLTPTRIYSHSLLPVLRSGHVKAFAHITGGGLLENIPRVLPEKLGVDLDAQTWRIPRVFSWLQQEGHLSEEEMARTFNCGVGAVLVVSKEQTEQILRDIQQHKEEAWVIGSVVARAEGSPRVKVKNLIESMQINGSVLKNGSLTNHFSFEKKKARVAVLISGTGSNLQALIDSTREPNSSAQIDIVISNKAAVAGLDKAERAGIPTRVINHKLYKNRVEFDSAIDLVLEEFSIDIVCLAGFMRILSGPFVQKWNGKMLNIHPSLLPSFKGSNAHEQALETGVTVTGCTVHFVAEDVDAGQIILQEAVPVKRGDTVATLSERVKLAEHKIFPAALQLVASGTVQLGENGKICWVKEE
Turning to B3, the binding result in experiment [5] is reported as “binds”.
